# Target: T1, phospholipid scramblase 3 (PLS3), human, isoform not stated (human, UniProt Q9NRY6 1-295, limits assumed, phosphothreonine, position not stated (shown by the anti-PT blot of immunoprecipitated PLS3))
# T1 construct: also called endogenous PLS3; wild-type PLS3
# Experiment: co-immunoprecipitation with PLS3 antibody, Western blot with Bcl-xL antibody
# Sequence of Bcl-xL (Q07817 whole entry, change not shown): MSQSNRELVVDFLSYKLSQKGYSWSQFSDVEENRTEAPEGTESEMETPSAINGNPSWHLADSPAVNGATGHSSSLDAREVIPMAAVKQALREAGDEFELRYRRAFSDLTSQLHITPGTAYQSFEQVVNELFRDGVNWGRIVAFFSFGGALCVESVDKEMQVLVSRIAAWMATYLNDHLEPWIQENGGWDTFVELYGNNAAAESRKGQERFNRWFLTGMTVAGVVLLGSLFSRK
binder,measurement,value
Bcl-xL (other) not shown,binding result,no binding

# Reference: US20060172958A1 (published 2006)
